Drawing on patent US8592455B2 (priority 2008, dated 2013), this text covers EC50 for 23 molecules.

Each structure is given as a SMILES string.

The subject of the experiment is KMS11 cells. Briefly: cells. To be noted: Homo sapiens, KMS-11, 72 h, read-out: KMS11-lluc EC50.

As to `C[C@H]1C[C@@H](c2ccncc2NC(=O)c2nc(-c3c(F)cccc3F)c(F)cc2N)C[C@@H](N)[C@H]1O` (stereo in doubt) [Example 132, 3-amino-N-(4-(3-amino-4-hydroxy-5-methylcyclohexyl)pyridin-3-yl)-6-(2,6-difluorophenyl)-5-fluoropicolinamide], the EC50 (as a rule, the midpoint of the concentration-response curve) is 380 nM.

Turning to `C[C@@H]1C[C@H](N)C[C@H](c2ccncc2NC(=O)c2ccc(F)c(C3CCCCC3)n2)C1` (stereo in doubt) [Example 91, N-(4-(3-amino-5-methylcyclohexyl)pyridin-3-yl)-6-cyclohexyl-5-fluoropicolinamide], the EC50 was 2900 nM.

Turning to `CC1(C)C[C@H](N)C[C@H](c2ccncc2NC(=O)c2ccc(F)c(-c3ccc(O)cc3F)n2)C1` [Example 10, N-(4-((1R,5R)-5-amino-3,3-dimethylcyclohexyl)pyridin-3-yl)-5-fluoro-6-(2-fluoro-4-hydroxyphenyl)picolinamide], the EC50 came out at 2900 nM.

With `Nc1cc(F)c(-c2ccncc2F)nc1C(=O)Nc1cnccc1[C@@H]1CCC[C@H](N)C1` [Example 136, 5-amino-N-(4-((1R,3S)-3-aminocyclohexyl)pyridin-3-yl)-3,3′-difluoro-2,4′-bipyridine-6-carboxamide], the EC50 came to 6400 nM.

`N[C@H]1CCC[C@@H](c2ccncc2NC(=O)c2ccc(F)c([C@H]3CC[C@H](O)CC3)n2)C1` [Example 56, N-(4-((1R,3S)-3-aminocyclohexyl)pyridin-3-yl)-5-fluoro-6-((1r,4r)-4-hydroxycyclohexyl)picolinamide]: the EC50 is greater than 10000 nM.

Consider `N[C@H]1CCC[C@@H](c2ccncc2NC(=O)c2cccc(-c3cc(O)ccc3F)n2)C1` [Example 7, N-(4-((1R,3S)-3-aminocyclohexyl)pyridin-3-yl)-6-(2-fluoro-5-hydroxyphenyl)picolinamide], for which the EC50 is 330 nM.

For `C[C@@H]1C[C@H](c2ccncc2NC(=O)c2cccc(-c3c(F)cccc3F)n2)C[C@H](N)[C@H]1O` (stereo in doubt) [Example 52, N-(4-((1S,3S,4S,5R)-3-amino-4-hydroxy-5-methylcyclohexyl)pyridin-3-yl)-6-(2,6-difluorophenyl)picolinamide], the EC50 is 830 nM.

As to `Cc1ccc(F)c(-c2cccc(C(=O)Nc3cnccc3[C@H]3C[C@@H](N)[C@@H](O)[C@@H](C)C3)n2)c1` [Example 74, N-(4-((1R,3R,4S,5S)-3-amino-4-hydroxy-5-methylcyclohexyl)pyridin-3-yl)-6-(2-fluoro-5-methylphenyl)picolinamide], the EC50 worked out at 2900 nM.

As to `C[C@@H]1C[C@H](N)C[C@H](c2ccncc2NC(=O)c2nc(-c3cc(O)ccc3F)ccc2F)C1` [Example 43, N-(4-((1R,3S,5S)-3-amino-5-methylcyclohexyl)pyridin-3-yl)-3-fluoro-6-(2-fluoro-5-hydroxyphenyl)picolinamide], the EC50 came out at 2200 nM.

With `CC1(C)C[C@H](N)C[C@H](c2ccncc2NC(=O)c2ccc(F)c(-c3c(F)cccc3F)n2)C1` [Example 49, N-(4-((1R,5R)-5-amino-3,3-dimethylcyclohexyl)pyridin-3-yl)-6-(2,6-difluorophenyl)-5-fluoropicolinamide], the EC50 is 1800 nM.

As for `C[C@@H]1C[C@H](N)C[C@H](c2ccncc2NC(=O)c2nc(-c3c(F)cccc3F)c(F)cc2N)C1` [Example 51, 3-amino-N-(4-((1R,3S,5S)-3-amino-5-methylcyclohexyl)pyridin-3-yl)-6-(2,6-difluorophenyl)-5-fluoropicolinamide], the EC50 amounted to 310 nM.

As for `Nc1ccc(-c2c(F)cccc2F)nc1C(=O)Nc1cnccc1[C@@H]1CC[C@H](O)[C@H](N)C1` (stereo in doubt) [Example 102, 3-amino-N-(4-(3-amino-4-hydroxycyclohexyl)pyridin-3-yl)-6-(2,6-difluorophenyl)picolinamide], the EC50 stood at 870 nM.

Regarding `N[C@H]1CCC[C@@H](c2ccncc2NC(=O)c2ccc(F)c(-c3cc(O)ccc3F)n2)C1` [Example 33, N-(4-((1R,3S)-3-aminocyclohexyl)pyridin-3-yl)-5-fluoro-6-(2-fluoro-5-hydroxyphenyl)picolinamide], the EC50 amounted to 1400 nM.

Turning to `C[C@H]1CN(c2ccncc2NC(=O)c2cccc(-c3ccccc3F)n2)C[C@@H](N)[C@@H]1O` [Example 23, N-(4-((3R,4R,5S)-3-amino-4-hydroxy-5-methylpiperidin-1-yl)pyridin-3-yl)-6-(2-fluorophenyl)picolinamide], the EC50 was found to be 1900 nM.

Turning to `COc1ccc(F)c(-c2nc(C(=O)Nc3cnccc3[C@@H]3C[C@H](C)C[C@H](N)C3)ccc2F)c1` [Example 45, N-(4-((1R,3S,5S)-3-amino-5-methylcyclohexyl)pyridin-3-yl)-5-fluoro-6-(2-fluoro-5-methoxyphenyl)picolinamide], the EC50 is 1300 nM.

Turning to `CCc1ccc(F)c(-c2cccc(C(=O)Nc3cnccc3[C@@H]3C[C@H](C)C[C@H](N)C3)n2)c1F` [Example 21, N-(4-((1R,3S,5S)-3-amino-5-methylcyclohexyl)pyridin-3-yl)-6-(3-ethyl-2,6-difluorophenyl)picolinamide], the EC50 is 3300 nM.

Turning to `Cc1ccc(F)c(-c2cccc(C(=O)Nc3cnccc3[C@@H]3C[C@H](C)C[C@H](N)C3)n2)c1F` [Example 29, N-(4-((1R,3S,5S)-3-amino-5-methylcyclohexyl)pyridin-3-yl)-6-(2,6-difluoro-3-methylphenyl)picolinamide], the EC50 came out at 1400 nM.

Turning to `C[C@H]1C[C@@H](c2ccncc2NC(=O)c2ccc(F)c(-c3c(F)cc(O)cc3F)n2)C[C@@H](N)[C@@H]1O` [Example 4, N-(4-((1R,3R,4R,5S)-3-amino-4-hydroxy-5-methylcyclohexyl)pyridin-3-yl)-6-(2,6-difluoro-4-hydroxyphenyl)-5-fluoropicolinamide], the EC50 is 1300 nM.

On to `C[C@H]1CN(c2ccncc2NC(=O)c2ccc(F)c(-c3c(F)cc(O)cc3F)n2)C[C@@H](N)[C@@H]1O` [Example 2, N-(4-((3R,4R,5S)-3-amino-4-hydroxy-5-methylpiperidin-1-yl)pyridin-3-yl)-6-(2,6-difluoro-4-hydroxyphenyl)-5-fluoropicolinamide], for which the EC50 was 70 nM.

Turning to `C[C@@H]1C[C@H](N)C[C@H](c2ccncc2NC(=O)c2cccc(-c3cc(O)ccc3F)n2)C1` [Example 35, N-(4-((1R,3S,5S)-3-amino-5-methylcyclohexyl)pyridin-3-yl)-6-(2-fluoro-5-hydroxyphenyl)picolinamide], the EC50 is 670 nM.

With `C[C@@H]1C[C@H](N)C[C@H](c2ccncc2NC(=O)c2ccc(F)c(-c3ccc(O)cc3F)n2)C1` [Example 38, N-(4-((1R,3S,5S)-3-amino-5-methylcyclohexyl)pyridin-3-yl)-5-fluoro-6-(2-fluoro-4-hydroxyphenyl)picolinamide], the EC50 came out at 730 nM.

In the case of `C[C@H]1CN(c2ccncc2NC(=O)c2ccc(F)c(-c3ccncc3)n2)C[C@@H](N)[C@@H]1O` [Example 120, N-(4-((3R,4R,5S)-3-amino-4-hydroxy-5-methylpiperidin-1-yl)pyridin-3-yl)-3-fluoro-2,4′-bipyridine-6-carboxamide], the EC50 is 8500 nM.

Regarding `C[C@@H]1C[C@H](N)C[C@H](c2ccncc2NC(=O)c2ccc(F)c(-c3cc(F)ccc3F)n2)C1` [Example 61, N-(4-((1R,3S,5S)-3-amino-5-methylcyclohexyl)pyridin-3-yl)-6-(2,5-difluorophenyl)-5-fluoropicolinamide], the EC50 stood at 1200 nM.
